About 14,000 (4.5%) of roughly 310,000 compounds showed an effect of 50% or more. Effects have a minus sign here. The list shows a part of the results.
Biological target: human ether-à-go-go-related gene (hERG) potassium channel (human, UniProt Q12809)
Test: primary screen, population patch clamp on CHO cells stably expressing hERG
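Further: peak tail current of the secondary pulse compared with the same well before compound.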

human ether-à-go-go-related gene (hERG) potassium channel, sequence (Q12809 whole entry, looked up): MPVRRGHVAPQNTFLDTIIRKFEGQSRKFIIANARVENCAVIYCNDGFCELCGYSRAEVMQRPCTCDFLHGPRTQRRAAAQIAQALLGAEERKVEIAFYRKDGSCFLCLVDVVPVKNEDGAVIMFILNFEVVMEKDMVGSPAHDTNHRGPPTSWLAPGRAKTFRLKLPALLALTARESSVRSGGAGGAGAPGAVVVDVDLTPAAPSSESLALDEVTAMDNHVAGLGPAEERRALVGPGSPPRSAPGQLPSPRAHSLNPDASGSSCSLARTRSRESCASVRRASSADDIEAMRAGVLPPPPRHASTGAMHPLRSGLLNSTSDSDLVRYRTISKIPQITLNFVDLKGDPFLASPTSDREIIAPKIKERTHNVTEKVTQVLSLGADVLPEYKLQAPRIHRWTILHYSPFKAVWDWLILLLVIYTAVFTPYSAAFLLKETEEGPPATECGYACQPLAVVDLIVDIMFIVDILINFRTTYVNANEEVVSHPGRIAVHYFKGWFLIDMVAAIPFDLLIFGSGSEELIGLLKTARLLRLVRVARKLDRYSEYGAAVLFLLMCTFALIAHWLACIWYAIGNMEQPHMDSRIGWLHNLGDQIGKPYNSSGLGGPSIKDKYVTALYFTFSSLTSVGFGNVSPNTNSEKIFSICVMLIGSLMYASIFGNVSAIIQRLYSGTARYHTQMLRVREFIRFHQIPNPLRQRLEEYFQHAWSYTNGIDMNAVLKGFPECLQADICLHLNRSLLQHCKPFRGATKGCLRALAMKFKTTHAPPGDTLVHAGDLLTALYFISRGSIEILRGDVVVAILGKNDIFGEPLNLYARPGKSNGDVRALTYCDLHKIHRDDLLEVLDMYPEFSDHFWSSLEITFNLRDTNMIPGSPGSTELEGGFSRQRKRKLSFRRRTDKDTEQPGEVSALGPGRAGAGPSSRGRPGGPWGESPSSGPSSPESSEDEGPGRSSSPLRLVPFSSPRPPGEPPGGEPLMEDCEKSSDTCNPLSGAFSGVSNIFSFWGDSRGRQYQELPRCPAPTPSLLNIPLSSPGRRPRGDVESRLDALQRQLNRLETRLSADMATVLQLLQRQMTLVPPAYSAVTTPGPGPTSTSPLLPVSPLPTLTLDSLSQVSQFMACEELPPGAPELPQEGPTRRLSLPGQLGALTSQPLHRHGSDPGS

SMILES | hERG current change (%, negative = inhibition) at 10uM
C/C=C/c1ccc(OCC(=O)Nc2cc(C(F)(F)F)ccc2N2CCOCC2)c(OC)c1 | 15.6%
COc1cc(C(=O)NNC(=O)CCOc2cccc(Br)c2)cc(OC)c1OC | -19.4%
Cc1ccc(S(=O)(=O)N2CCN(C(=O)CN3CCCSc4ccccc43)CC2)cc1 | -17.9%
Nc1nc(Sc2ccc(C(F)(F)F)cn2)n[nH]1 | 17%
CCN1CCN(c2cc(C)c3cc(NC(=S)N4CCN(c5ccc(F)cc5)CC4)ccc3n2)CC1 | -0.511%
Cc1ccc(C(=O)c2oc3ccc(Cl)cc3c2NC(=O)CN2CCN(C)CC2)cc1 | -74.3%
O=C(CCNS(=O)(=O)c1cccc2nsnc12)N1CC(=O)N(CCc2ccccc2)C(=O)C1 | -43%
CC1CCc2c(sc(NC(=O)c3ccccc3C(=O)O)c2C#N)C1 (stereo not drawn) | -0.906%
Cc1cc(C(=O)CSc2nc3ccc(Cl)cc3[nH]2)c(C)n1CC1CCCO1 (stereo not drawn) | -2.01%
CN(C)S(=O)(=O)c1ccc(C(=O)NCC2CC2(Cl)Cl)cc1 (stereo not drawn) | 5.21%
Cc1cc(-n2cccn2)ccc1CN1CCN(C2CCCC2)C(CCO)C1 (stereo not drawn) | -73.5%
CC1(C)C2CCC1(CS(=O)(=O)NCc1ccc(C(=O)O)cc1)C(=O)C2 (stereo not drawn) | 11.2%
CCC(=O)N1CCN(c2ccccc2NC(=S)NC(=O)c2ccco2)CC1 | -47.5%
N/C(=N\OC(=O)c1ccc(Cl)cc1)c1ccc(Cl)cc1 | 7.85%
COC1CCCN(C(=O)c2ccc3oc(Cc4ccc(Cl)cc4)nc3c2)C1 (stereo not drawn) | -17.5%
Cc1cccc(NC(=O)CSc2nnnn2-c2ccc3c(c2)OCCO3)n1 | 0.764%
Cc1ccccc1OCCC(=O)Nc1ccc(N2CCOCC2)cc1N1CCOCC1 | -27.6%
O=C1C(Cc2ccccc2)NC(=S)N1c1ccccc1 (stereo not drawn) | 17.1%
CCCCOc1ccc(N2CC(C(=O)NCc3ccco3)CC2=O)cc1 (stereo not drawn) | -14.5%

SMILES | hERG current change (%, negative = inhibition) at 10uM
O=C(NCC1CCCO1)c1cc2cc(F)ccc2[nH]1 (stereo not drawn) | 9.11%
O=C(COC(=O)c1cnccn1)c1cccc([N+](=O)[O-])c1 | 14.4%
CCCCN(C(=O)c1ccco1)C1CCS(=O)(=O)C1 (stereo not drawn) | 0.36%
Cc1ccc(C2=NN(C(=O)c3ccccc3F)C(c3ccccc3F)C2)cc1 (stereo not drawn) | 19%
Cc1[nH]c2ccccc2c1C(=O)CSc1ccccc1 | -10.9%
COc1nc(C)ccc1-c1noc(-c2ccccn2)n1 | -0.908%
CC(C)(C)NC(=O)CSc1nc2ccc(NC(=O)CSc3nnc(N)s3)cc2s1 | 16.2%
O=C(NCc1ccco1)c1nc2ncccn2n1 | 3.95%
Cc1ccc(NC(=O)CCNC(=O)c2ccco2)cc1Cl | 5.16%
CCc1ccc(NC2=CC(=O)CC(C)(C)C2)cc1 | -1.02%
COC(=O)c1cc(NC(=O)C(C)c2ccc(CC(C)C)cc2)ccc1O (stereo not drawn) | -4.56%
O=C(C1=C[C@@H](c2ccc(C(F)(F)F)cc2)C[C@@H](OCCCCO)O1)N1CCN(Cc2ccc3c(c2)OCO3)CC1 | -68.8%
CC(=O)Nc1ccc(S(=O)(=O)Nc2nnc(CC(C)(C)C)s2)cc1 | 5.08%
Cc1cc(C)c(NC(=O)Cn2c([N+](=O)[O-])cnc2C)c(C)c1 | 9.46%
CC(=O)Nc1ccc(S(=O)(=O)n2cnc3ccccc32)cc1 | 5.56%
CC(C)Oc1ccc(S(=O)(=O)N2CCOCC2)cc1NC(=O)CN1C(=O)NC2(CCCC2)C1=O | -17.8%
CCOc1ccc(N2C(=O)c3cccnc3C2Nc2ccc(C)cc2)cc1 (stereo not drawn) | -6.58%
COCc1nnc(NS(=O)(=O)c2c(C)cc(C)cc2C)s1 | -2.31%
CN1CCCC(OC(=O)c2ccccc2F)C1.Cl (stereo not drawn) | 0.787%

SMILES | hERG current change (%, negative = inhibition) at 10uM
Cc1cc(C)cc(NC(=O)CSCc2cc(=O)n3ccsc3n2)c1 | 13.3%
O=c1c2ccccc2nc(-c2ccco2)n1-c1ccncc1 | 2.31%
CC1=CC(C)(C)N2C(=O)C(=O)c3cc(OC(=O)c4ccco4)cc1c32 | -45.8%
Cc1ccc(-n2nnc(-c3nccn3C)n2)cc1 | 3.12%
COc1ccc(C(c2ccc(OC)cc2)C(Cl)(Cl)Cl)cc1 | 14.1%
O=C(NC1CCCCC1)C1CCC(CNS(=O)(=O)c2ccccc2)CC1 (stereo not drawn) | 10.3%
Cc1ccc(NC(=O)NC2CCCCC2)cc1S(=O)(=O)N1CCOCC1 | 8.15%
COc1cccc2cc(C(=O)C3=C(O)C(=O)N(CCN4CCOCC4)C3c3ccc(C(C)(C)C)cc3)oc12 (stereo not drawn) | 14.7%
O=C1CSC(c2cccnc2)N1CCc1ccccn1 (stereo not drawn) | 16.4%
Cc1ccc(Nc2nc3ccccc3n3cnnc23)cc1C | 15.5%
Nc1cc(S(=O)(=O)N2CCCCC2)ccc1N1CCCCC1 | -1.62%
CCCCc1cc(=O)oc2cc(OCC(=O)NCC3CCC(C(=O)O)CC3)ccc12 (stereo not drawn) | 18%
O=C(NCC1CCCCC1)c1ccc([N+](=O)[O-])cc1 | -16%
COc1cc(C(=O)OC(C)C(=O)NC2CCCCC2C)c([N+](=O)[O-])cc1OC (stereo not drawn) | -11.6%
O=S(=O)(c1ccc(Cl)cc1)n1nnc2ccccc21 | 1.44%
N#Cc1ccc(C(=O)OCC(=O)Nc2cccnc2Cl)cc1 | -17.7%
CCOC(=O)c1sc(NC(=O)c2ccc(OC)cc2)nc1C | 15.1%
O=C(CSc1nnc(Cc2ccccc2)o1)Nc1ccc(Br)cn1 | 15.5%
Cc1cccc(OCC(=O)N(Cc2ccccc2)c2c(N)n(Cc3ccccc3)c(=O)[nH]c2=O)c1 | -11.2%
